Reference: paper PMC8660637
Results are given in words; binding and its absence hold for the method and conditions named. Binding seen in cells or lysates may run through a third protein. Some results given as binding are weak or reduced against the parent protein; the word gives no strength.

Amino acid sequences for entries named in this document (tags omitted).
UniProt O94864: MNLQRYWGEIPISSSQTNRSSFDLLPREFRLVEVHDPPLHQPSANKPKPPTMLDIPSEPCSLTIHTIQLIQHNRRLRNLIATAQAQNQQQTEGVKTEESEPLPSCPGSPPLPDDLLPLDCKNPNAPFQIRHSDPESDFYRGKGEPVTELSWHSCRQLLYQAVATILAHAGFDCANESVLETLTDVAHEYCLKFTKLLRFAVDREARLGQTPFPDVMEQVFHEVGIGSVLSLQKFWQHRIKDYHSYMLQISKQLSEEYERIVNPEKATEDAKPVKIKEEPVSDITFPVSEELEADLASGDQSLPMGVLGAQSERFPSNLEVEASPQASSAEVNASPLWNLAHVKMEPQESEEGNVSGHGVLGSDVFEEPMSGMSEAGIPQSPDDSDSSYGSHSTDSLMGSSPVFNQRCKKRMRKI
UniProt Q92830: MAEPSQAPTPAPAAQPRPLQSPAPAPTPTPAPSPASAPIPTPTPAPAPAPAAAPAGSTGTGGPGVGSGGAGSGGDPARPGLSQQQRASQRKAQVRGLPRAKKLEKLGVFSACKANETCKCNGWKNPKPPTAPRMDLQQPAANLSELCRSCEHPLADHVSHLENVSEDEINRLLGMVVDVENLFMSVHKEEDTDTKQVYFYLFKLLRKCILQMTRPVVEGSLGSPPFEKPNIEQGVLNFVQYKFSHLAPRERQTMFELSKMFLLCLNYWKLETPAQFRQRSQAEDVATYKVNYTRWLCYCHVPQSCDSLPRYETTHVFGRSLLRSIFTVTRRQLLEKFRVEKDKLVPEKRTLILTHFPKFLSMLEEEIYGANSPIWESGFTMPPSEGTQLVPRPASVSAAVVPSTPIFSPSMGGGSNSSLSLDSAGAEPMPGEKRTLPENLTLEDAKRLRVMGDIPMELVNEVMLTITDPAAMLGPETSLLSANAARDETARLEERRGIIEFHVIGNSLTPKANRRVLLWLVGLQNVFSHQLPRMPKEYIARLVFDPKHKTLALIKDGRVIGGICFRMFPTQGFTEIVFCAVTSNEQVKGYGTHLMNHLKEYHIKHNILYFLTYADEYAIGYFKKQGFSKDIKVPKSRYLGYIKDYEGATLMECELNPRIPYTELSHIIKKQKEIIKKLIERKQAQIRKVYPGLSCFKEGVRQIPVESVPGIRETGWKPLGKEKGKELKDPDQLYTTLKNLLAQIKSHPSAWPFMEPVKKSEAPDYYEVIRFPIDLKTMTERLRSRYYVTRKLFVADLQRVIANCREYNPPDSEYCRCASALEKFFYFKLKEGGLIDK
UniProt Q12962: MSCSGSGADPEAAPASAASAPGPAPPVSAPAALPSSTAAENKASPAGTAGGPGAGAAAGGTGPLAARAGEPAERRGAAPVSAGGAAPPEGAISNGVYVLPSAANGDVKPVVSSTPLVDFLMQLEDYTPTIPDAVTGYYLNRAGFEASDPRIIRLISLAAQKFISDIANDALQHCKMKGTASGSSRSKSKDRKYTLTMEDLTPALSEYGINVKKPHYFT
UniProt P20226: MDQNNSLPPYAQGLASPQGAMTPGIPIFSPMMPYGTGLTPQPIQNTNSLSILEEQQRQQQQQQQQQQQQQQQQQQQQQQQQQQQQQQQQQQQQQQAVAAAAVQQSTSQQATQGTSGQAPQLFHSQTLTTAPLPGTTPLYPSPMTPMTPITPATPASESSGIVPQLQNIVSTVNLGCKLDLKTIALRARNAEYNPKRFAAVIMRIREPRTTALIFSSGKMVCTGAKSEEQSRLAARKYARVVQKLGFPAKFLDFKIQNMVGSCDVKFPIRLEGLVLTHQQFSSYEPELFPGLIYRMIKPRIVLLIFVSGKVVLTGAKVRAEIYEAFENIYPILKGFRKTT

Molecular target: SUPT7L-Halo-(FLAG)3 (human (endogenous in HeLa)) (UniProt O94864)
Assay: co-IP; SUPT7L-Halo-(FLAG)3 captured on FLAG M2 resin from the dialyzed phosphocellulose P0.5 M fraction of HeLa nuclear extract (150 mM KCl, 0.1% IGEPAL CA-630, 12 h, 4 °C), washes up to 0.6 M NaCl, 3xFLAG peptide elution; western blot of lysate and elution

| Molecule | binding |
| --- | --- |
| KAT2A (from UniProt Q92830 1-837) | binds |
| TAF9B (from UniProt Q9HBM6 1-251) | binds |
| TAF10 (from UniProt Q12962 1-218) | binds |
| TBP (TATA-box binding protein), endogenous in HeLa (from UniProt P20226 1-339) | no binding |
| USP22 (protein, UniProt Q9UPT9 1-525) MVSRPEPEGEAMDAELAVAPPGCSHLGSFKVDNWKQNLRAIYQCFVWSGTAEARKRKAKSCICHVCGVHLNRLHSCLYCVFFGCFTKKHIHEHAKAKRHNLAIDLMYGGIYCFLCQDYIYDKDMEIIAKEEQRKAWKMQGVGEKFSTWEPTKRELELLKHNPKRRKITSNCTIGLRGLINLGNTCFMNCIVQALTHTPLLRDFFLSDRHRCEMQSPSSCLVCEMSSLFQEFYSGHRSPHIPYKLLHLVWTHARHLAGYEQQDAHEFLIAALDVLHRHCKGDDNGKKANNPNHCNCIIDQIFTGGLQSDVTCQVCHGVSTTIDPFWDISLDLPGSSTPFWPLSPGSEGNVVNGESHVSGTTTLTDCLRRFTRPEHLGSSAKIKCSGCHSYQESTKQLTMKKLPIVACFHLKRFEHSAKLRRKITTYVSFPLELDMTPFMASSKESRMNGQYQQPTDSLNNDNKYSLFAVVNHQGTLESGHYTSFIRQHKDQWFKCDDAIITKASIKDVLDSEGYLLFYHKQFLEYE | binds |
| ENY2 (protein, UniProt Q9NPA8 1-101) MVVSKMNKDAQMRAAINQKLIETGERERLKELLRAKLIECGWKDQLKAHCKEVIKEKGLEHVTVDDLVAEITPKGRALVPDSVKKELLQRIRTFLAQHASL | binds |
| TADA2B (protein, UniProt Q86TJ2 1-420) MAELGKKYCVYCLAEVSPLRFRCTECQDIELCPECFSAGAEIGHHRRYHGYQLVDGGRFTLWGPEAEGGWTSREEQLLLDAIEQFGFGNWEDMAAHVGASRTPQEVMEHYVSMYIHGNLGKACIPDTIPNRVTDHTCPSGGPLSPSLTTPLPPLDISVAEQQQLGYMPLRDDYEIEYDQDAETLISGLSVNYDDDDVEIELKRAHVDMYVRKLKERQRRKNIARDYNLVPAFLGKDKKEKEKALKRKITKEEKELRLKLRPLYQFMSCKEFDDLFENMHKEKMLRAKIRELQRYRRNGITKMEESAEYEAARHKREKRKENKNLAGSKRGKEDGKDSEFAAIENLPGFELLSDREKVLCSSLNLSPARYVTVKTIIIKDHLQKRQGIPSKSRLPSYLDKVLKKRILNFLTESGWISRDAS | binds |
